Measured values published in publication PMC4336329 (PLoS ONE, 2015).
Hit rate of the full screen: of about 310,000 compounds, about 2,200 (0.71%) showed an effect of 50% or more. The effect is printed as a negative number. The list shows a part of the results.

Target: human ether-à-go-go-related gene (hERG) potassium channel (human, UniProt Q12809)
Assay: primary screen, population patch clamp on CHO cells stably expressing hERG

Chain of human ether-à-go-go-related gene (hERG) potassium channel (Q12809 whole entry, looked up): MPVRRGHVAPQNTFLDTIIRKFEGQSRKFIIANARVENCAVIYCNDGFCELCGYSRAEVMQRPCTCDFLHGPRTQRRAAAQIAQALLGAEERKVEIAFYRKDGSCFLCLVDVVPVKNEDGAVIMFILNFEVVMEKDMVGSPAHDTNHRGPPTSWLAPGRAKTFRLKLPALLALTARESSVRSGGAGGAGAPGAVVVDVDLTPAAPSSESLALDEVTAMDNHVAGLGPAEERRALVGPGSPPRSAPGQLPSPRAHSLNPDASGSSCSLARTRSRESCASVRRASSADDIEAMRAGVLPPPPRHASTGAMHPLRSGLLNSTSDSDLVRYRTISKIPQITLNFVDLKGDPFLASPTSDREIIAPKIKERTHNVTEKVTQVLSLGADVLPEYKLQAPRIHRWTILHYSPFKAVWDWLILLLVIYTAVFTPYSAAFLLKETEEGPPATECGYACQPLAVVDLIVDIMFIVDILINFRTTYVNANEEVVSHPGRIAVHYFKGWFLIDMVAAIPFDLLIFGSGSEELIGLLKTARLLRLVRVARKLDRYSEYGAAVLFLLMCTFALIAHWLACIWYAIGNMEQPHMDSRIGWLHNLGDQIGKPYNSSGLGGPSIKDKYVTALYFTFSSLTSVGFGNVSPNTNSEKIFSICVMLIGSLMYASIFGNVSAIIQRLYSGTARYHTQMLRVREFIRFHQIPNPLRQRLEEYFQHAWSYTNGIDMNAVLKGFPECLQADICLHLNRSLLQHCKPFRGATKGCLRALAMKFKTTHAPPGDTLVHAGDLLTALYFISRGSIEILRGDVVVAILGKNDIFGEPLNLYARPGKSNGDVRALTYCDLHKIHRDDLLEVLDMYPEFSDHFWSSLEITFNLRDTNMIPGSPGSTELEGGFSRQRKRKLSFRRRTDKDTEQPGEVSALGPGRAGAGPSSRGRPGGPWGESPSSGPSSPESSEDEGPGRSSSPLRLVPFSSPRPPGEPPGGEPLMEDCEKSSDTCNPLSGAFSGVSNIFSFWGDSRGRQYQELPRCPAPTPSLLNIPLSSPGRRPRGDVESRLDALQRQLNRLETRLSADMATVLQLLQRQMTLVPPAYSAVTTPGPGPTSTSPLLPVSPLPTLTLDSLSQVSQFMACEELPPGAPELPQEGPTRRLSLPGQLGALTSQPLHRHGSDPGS

| Compound | hERG current change (%, negative = inhibition) at 1uM |
| --- | --- |
| CNC(=O)c1ccc(NC(=O)c2cccc(C(F)(F)F)c2)cc1 | 9.77% |
| CCSc1nc(N)c(C#N)c(-c2ccco2)c1C#N | 4.1% |
| COc1cccc(OC)c1C(=O)NNS(=O)(=O)c1ccc2ccccc2c1 | 13.2% |
| COc1ccccc1-c1ccc(SCC(=O)NC2CCCC2)nn1 | -1.49% |
| Cc1cc(C)n(CC(O)COc2c(C)cccc2C)n1 (stereo not shown) | 4.69% |
| COc1ccc(CCNC(=O)COc2ccc3c(c2)OCO3)cc1 | 8.08% |
| Cc1cc2cc(C)c(NCCNC(=O)c3cccs3)nc2cc1C | 6.25% |
| CC(C)CNC(=O)c1cc(S(=O)(=O)N2CCOCC2)ccc1N1CCCC1 | 2.58% |
| CN1CCN(S(=O)(=O)c2cc([N+](=O)[O-])ccc2N/N=C/c2ccc(Cl)cc2)CC1 | -2.5% |
| Cc1noc2ncnc(Sc3ccccc3Cl)c12 | 11.7% |
| CCCn1c(N)c(C(=O)CN(C)CC(=O)Nc2ccc(F)cc2)c(=O)[nH]c1=O | -20% |
| CCSc1nnc(Cn2c(=O)sc3ccccc32)n1-c1ccccc1C | 4.66% |
| COCCCNC(=O)CCSc1ccc(C)cc1 | 4.88% |
| CC1(NC(=O)Nc2cc([N+](=O)[O-])ccc2O)CCS(=O)(=O)C1 (stereo not shown) | 11.5% |
| COc1cc(C(=O)Nc2scc(-c3ccccc3)c2C(=O)O)cc(OC)c1OC | 14.8% |
| CC1C(=O)N2CCCc3cc(NC(=O)C(=O)NCCc4c[nH]c5ccccc45)cc1c32 (stereo not shown) | 6.51% |
| COc1ccc(-c2cc(C(=O)Oc3ccc([N+](=O)[O-])cc3)c3ccccc3n2)cc1 | 8.08% |
| CCc1ccccc1NCC(=O)Nc1ccc(Cl)c(C(F)(F)F)c1 | 16.6% |
| CCc1ccc(N(CC(=O)N2CCOCC2)S(C)(=O)=O)cc1 | 13.7% |
| CCOc1ccc(C(=O)NCC(=O)NCCCn2nc(C)cc2C)cc1OCC | 11.6% |
| Cc1cc(-c2ccccc2)n2ncnc2n1 | 13% |
| Cc1ccc(C)c(Cn2nnc3c(=O)[nH]c(C4CCCN(C(=O)C5CCC5)C4)nc32)c1 (stereo not shown) | -3.21% |

| Compound | hERG current change (%, negative = inhibition) at 1uM |
| --- | --- |
| CC(=O)O[C@H]1CSC[C@H]1NC(=O)c1ccccc1 | -0.55% |
| C[C@H](NC(=O)c1nc[nH]c1C(=O)N[C@@H](Cc1ccccc1)C(=O)OCc1ccccc1)C(=O)OCc1ccccc1 | 3.98% |
| Cc1cc2c(ccc3c2no[n+]3[O-])nn1 | -8.19% |
| OC1/C(=C/c2ccc(Cl)cc2Cl)N2CCC1CC2 (stereo not shown) | 3.13% |
| Cc1ccccc1-n1ncc2c1CC(C)(C)CC2NC(=O)CSc1ccncc1 (stereo not shown) | -2.76% |
| NS(=O)(=O)c1ccc(CNC(=O)/C=C/c2ccccc2[N+](=O)[O-])cc1 | 8.06% |
| CC(Sc1cnc2ccccc2n1)C(=O)O (stereo not shown) | 13.7% |
| COC(=O)c1ccc(CSc2nc(C(F)(F)F)c3c(c2C#N)CCC3)o1 | 2.61% |
| Fc1ccccc1OCCCCCN1CCCC1 | 4.93% |
| COC(=O)c1nnn(-c2ccc(F)c(Cl)c2)c1C(=O)OC | 12.2% |
| COc1ccc(CN2C(=O)c3ccccc3C2C(=O)NC2CCCC2)c(OC)c1 (stereo not shown) | -3.81% |
| Cc1cc(N2CCOCC2)n2ncc(-c3ccccc3)c2n1 | -2.91% |
| C=C(C)c1cccc(C(C)(C)NC(=O)Nc2ccc(Cl)cn2)c1 | 4.85% |
| CC(=O)CCn1c(=O)n(CCC(C)=O)c(=O)n(CCC(C)=O)c1=O | 10.6% |
| CC(C)n1cc(CN2CCCC(CO)(Cc3cccc(Cl)c3)C2)cn1 (stereo not shown) | 3.37% |
| Cc1cc(-c2ccco2)n(CC(=O)NCCN(C)C)n1 | 13% |
| CC1CCCCC1NC(=O)c1ccc(S(=O)(=O)N2CCN(C)CC2)cc1 (stereo not shown) | 11.9% |
| Cc1ccc(Cl)cc1N1CCN(S(=O)(=O)c2c(C)[nH]c(C)c2C(=O)N2CCCCC2)CC1 | 14.4% |
| CCOC(=O)C(C(=O)Nc1ccc(C)cc1)C1CCCCC1 (stereo not shown) | 4.96% |
| O=C(COC(=O)/C=C/c1ccccc1Cl)NC1CCCC1 | 6.08% |
| Fc1ccc2cnc(-c3ccccc3)c(-c3cccc(C(F)(F)F)c3)c2c1 | 22.5% |
